About 10 (0.005%) of roughly 200,000 compounds were called active. Inconclusive results, whose numbers are uncertain, are shown with a selection of clear calls. Calls follow the shape of the dose curve; as a rule, active = well fitted inhibition curve with a large enough effect; inconclusive = small, poorly fitted or top-dose-only effect, or effect the other way, or another doubt; inactive = no such curve, though single readings can be large or run the other way. Potencies of inconclusive entries are doubtful fits and often do not repeat.
target: Lysosomal alpha-glucosidase (Homo sapiens) (UniProt P10253); test: qHTS Assay for Inhibitors of Human alpha-Glucosidase as a Potential Chaperone Treatment of Pompe Disease; conditions: purified human GAA, 4-MU-alpha-glucoside fluorescence; activity change, negative = inhibition: at 76.9 µM (top of the series) unless noted;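 as to activity change, negative = inhibition: plate controls were uninhibited enzyme wells for no effect and no-enzyme background for full effect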
In short: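 Enzyme (4 nM final) mixed with compound (up to 77 uM), then 4-MU-alpha-D-pyranoside (400 uM final) added; 20 min at room temperature, pH 5.0. Reaction stopped at pH 10, fluorescence read, AC50 derived by Hill fit.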
Potency is read from the fitted curve at half-maximal effect; tags tell the direction and shape of the fitted curve.

Potency, inconclusive:
CC(=O)c1cccc(NC(=O)C2CCCN(S(=O)(=O)c3ccccc3)C2)c1 (stereo not drawn) 39.8 µM [inhibitor, single point]
CC(C)Cc1nc(C(N)=O)c2[nH]c(=O)n(-c3ccc(F)cc3)c2n1 25.1 µM [activator, single point]
CCOC(=O)N1CCN(C(=O)C(CC)c2ccccc2)CC1 (stereo not drawn) 0.178 µM [inhibitor, full curve, poor fit]
CCC(C)(C)NC(=O)C(c1ccco1)N(C(=O)c1csnn1)c1cccc(F)c1 (stereo not drawn) 0.891 µM [inhibitor, partial curve, poor fit]
CCCn1c(=O)c2ccccc2n2c(SCCOc3ccccc3)nnc12 20 µM [inhibitor, partial curve, poor fit]
CCCN(CCC)CC(O)Cn1cc(/C=C/C(=O)c2ccccc2)c2ccccc21 (stereo not drawn) 39.8 µM [inhibitor, single point]
CNS(=O)(=O)c1ccc(NC(=O)Nc2cccc(F)c2)cc1 1.12 µM [inhibitor, single point]
COc1ccc(C2C=C(c3ccc(Br)cc3)Nc3nc(N4C(=O)CCC4=O)nn32)cc1 (stereo not drawn) 39.8 µM [activator, single point]
CN(c1ccccc1)C(c1ccc(F)cc1)c1nnnn1CC1CCCO1 (stereo not drawn) 35.5 µM [inhibitor, single point]

Activity change, negative = inhibition, inconclusive:
CC(C)Oc1cc(NC(=O)CSCC(=O)Nc2cccc(C(F)(F)F)c2)c(Cl)cc1Cl -19.3% [inhibitor]
COC(=O)[C@@H]1CCCN1C(=O)CCc1nnc(CCC2CCCCC2)o1 4.07% [activator]
COc1ccc(-c2cc(C(F)(F)F)c(C#N)c(SCC(=O)O)n2)cc1 15.4% [activator]
CCC(=O)N1c2ccccc2NC2=C(C(=O)CCC2)C1c1cccnc1 (stereo not drawn) -15% [inhibitor]
CC(Oc1ccc(Cl)cc1)C(=O)Nc1nccs1 (stereo not drawn) -17.9% [inhibitor]
COc1cc(C(=O)c2ccccc2)c(OC)cc1C(=O)Nc1ccc(O)cc1 17.3% [activator]

Activity change, negative = inhibition, inactive:
Cc1[nH]n(-c2cccc3ccccc23)c(=O)c1/C=N/c1sc2c(c1C#N)CCC2 -15%
COc1ccc(CCNC(=O)C23CN(Cc4ccccc4)CC2C(c2cccc([N+](=O)[O-])c2)=NO3)cc1 (stereo not drawn) -3.68%
CC(C)NC(=O)CSc1nccc(-c2cccs2)n1 -0.993%

Source: PubChem BioAssay AID1466 (National Center for Advancing Translational Sciences (NCATS), 2008)
